# Source: paper PMC4336329 (PLoS ONE, 2015)
# Out of some 310,000 compounds screened, about 14,000 (4.5%) showed an effect of 50% or more. The effect is printed as a negative number. This is one part of the list.
# Molecular target: human ether-à-go-go-related gene (hERG) potassium channel (human, UniProt Q12809)
# Experiment: primary screen, population patch clamp on CHO cells stably expressing hERG
# 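Also: peak tail current of the secondary pulse compared with the same well before compound.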
# Sequence of human ether-à-go-go-related gene (hERG) potassium channel (Q12809 whole entry, looked up): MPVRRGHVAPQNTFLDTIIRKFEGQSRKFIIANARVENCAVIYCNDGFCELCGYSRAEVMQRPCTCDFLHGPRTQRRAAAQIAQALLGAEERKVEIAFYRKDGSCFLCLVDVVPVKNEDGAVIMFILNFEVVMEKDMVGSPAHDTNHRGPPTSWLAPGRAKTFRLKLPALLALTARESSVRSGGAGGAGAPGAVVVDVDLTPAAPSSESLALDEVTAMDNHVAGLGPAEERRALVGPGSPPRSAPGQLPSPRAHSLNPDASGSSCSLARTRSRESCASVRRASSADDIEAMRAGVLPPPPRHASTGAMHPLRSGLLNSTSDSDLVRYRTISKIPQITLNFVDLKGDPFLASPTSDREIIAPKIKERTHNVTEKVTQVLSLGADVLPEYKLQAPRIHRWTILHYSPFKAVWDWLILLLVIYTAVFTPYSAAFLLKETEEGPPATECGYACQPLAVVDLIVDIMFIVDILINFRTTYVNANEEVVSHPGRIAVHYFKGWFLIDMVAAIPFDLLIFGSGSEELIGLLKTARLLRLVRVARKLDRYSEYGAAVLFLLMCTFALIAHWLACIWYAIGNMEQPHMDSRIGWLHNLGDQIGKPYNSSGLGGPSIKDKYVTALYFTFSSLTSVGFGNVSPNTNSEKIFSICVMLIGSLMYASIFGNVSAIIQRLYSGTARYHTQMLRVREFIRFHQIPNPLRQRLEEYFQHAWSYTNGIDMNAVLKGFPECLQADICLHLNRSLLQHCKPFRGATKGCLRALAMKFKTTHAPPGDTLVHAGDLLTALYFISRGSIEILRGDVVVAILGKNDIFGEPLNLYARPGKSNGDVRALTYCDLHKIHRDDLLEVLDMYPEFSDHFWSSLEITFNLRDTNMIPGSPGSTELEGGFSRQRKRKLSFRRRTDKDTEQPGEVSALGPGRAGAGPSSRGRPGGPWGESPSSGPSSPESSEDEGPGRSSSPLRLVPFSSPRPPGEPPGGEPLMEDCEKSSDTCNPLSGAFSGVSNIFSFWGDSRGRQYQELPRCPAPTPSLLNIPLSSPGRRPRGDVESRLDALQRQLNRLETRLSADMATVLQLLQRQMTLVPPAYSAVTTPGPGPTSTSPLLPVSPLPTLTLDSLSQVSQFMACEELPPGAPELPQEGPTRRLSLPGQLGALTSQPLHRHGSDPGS
row,SMILES,"hERG current change (%, negative = inhibition) at 10uM"
1,O=C(NCC(c1cccs1)N1CCOCC1)c1cn(-c2ccccc2)nc1-c1ccc(F)cc1 (centres unmarked),-1.67%
2,O=C(NC1CCCc2ccccc21)c1ccc(S(=O)(=O)N2CCOCC2)cc1 (centres unmarked),-4.41%
3,C/C(=N\Nc1ccccn1)c1cccs1,10.6%
4,Cc1ccc2[nH]cc(/C=C/c3cc[n+](C)cc3)c2c1.[I-],-5.51%
5,CC(=O)Nc1ccc(S(=O)(=O)Nc2cc3c(cc2C(C)=O)OCO3)cc1,20.7%
6,COC(=O)c1sc(S(=O)(=O)NC(Cc2ccccc2)C(=O)O)c(C(=O)OC)c1C (centres unmarked),1.57%
7,CCOc1ccccc1N(C)C(=O)c1cc2c(=O)n(CC)c3ccccc3c2s1,-6.11%
8,O=C(CSc1nc(=O)n2ccccc2n1)Nc1ccc2c(c1)OCCO2,-17.9%
9,COC(=O)[C@H](C)NC(=O)NC(C)CCc1ccccc1 (some centres unmarked),-3.35%
10,COC(=O)C1=C(N)Oc2cc(C)[nH]c(=O)c2C1c1ccc(Cl)cc1 (centres unmarked),-15.3%
11,CCOC(=O)C1=C(C)N(C)C(=S)NC1c1cccc(Cl)c1Cl (centres unmarked),-3.3%
12,Oc1ccc(-c2nc3ccccc3s2)c(O)c1,26.8%
13,O=C(Nc1ccccc1)c1ccc(NC(=O)C2CC2)cc1,2.57%
14,CC1=C(C(=O)OC(C)C)C(c2ccccc2Cl)CC(=O)N1 (centres unmarked),7.66%
15,N#CCCN1CCNCC1,13.1%
16,CCCCNC(=O)c1ccccc1NC(=O)c1ccccc1N(C)S(C)(=O)=O,-0.037%
17,CCCCNC(=O)CSc1nnc(-c2cccc(S(=O)(=O)N3CCOCC3)c2)o1,-18.1%
18,CN1C(=O)/C(=C2\SC(N)=NC2=O)c2ccccc21,8.44%
19,Cc1ccc(NC(=O)CCc2nnc3ccc(N4CCC5(CC4)OCCO5)nn23)cc1F,-12.7%
20,O=c1[nH]c(CN2CCc3ccccc32)nc2scc(-c3cccs3)c12,0.482%
21,CC1CCCC(NC(=O)NC(=O)COC(=O)C2=NN(c3ccccc3)C(=O)CC2)C1C (centres unmarked),0.805%

row,SMILES,"hERG current change (%, negative = inhibition) at 10uM"
1,COc1ccccc1CNC(=O)C1CCC(=O)N(CCCc2ccccc2)C1 (centres unmarked),-9.31%
2,CC(=O)N1CCCN(Cc2cn(-c3ccc(C)cc3)nc2-c2ccc(F)cc2)CC1,-30.3%
3,Nc1nc(-c2ccco2)nn1C(=O)c1ccc([N+](=O)[O-])cc1,13.4%
4,COCCNC(=O)C(=O)Nc1ccc(Cl)cc1C,2.84%
5,CCN(CC)CCNC(=O)c1cc2cc3ccc(OC)cc3nc2o1,-18%
6,C=CCn1c(SCc2ccc(F)cc2)nnc1-c1sc2nc(C)cc(C)c2c1N,-1.46%
7,CCOC(=O)N1CCC(NC(=O)C(Cc2ccccc2)NC(=O)C2CCCCC2)CC1 (centres unmarked),0.496%
8,Cc1[nH]c(=O)c(C#N)c(C)c1Cc1ccc(Cl)cc1Cl,24.5%
9,COc1ccccc1N/N=C/c1c(CO)cnc(C)c1O.Cl,0.579%
10,COC(=O)COc1ccc(S(=O)(=O)Nc2ccc(C(N)=O)cc2)cc1C,19.1%
11,COc1ccccc1-c1nnc2n1N=C(C(C)(C)C)CS2,-11.5%
12,O=C(NCCCCc1ccccc1)C1CC(c2cccc([N+](=O)[O-])c2)=NO1 (centres unmarked),-38.6%
13,CCn1c(C)[n+](CCOC(C)=O)c2cc(Cl)c(Cl)cc21.[I-],-8.87%
14,Cc1cccc(C)c1NS(=O)(=O)c1ccc(F)cc1,-7.71%
15,COc1ccccc1OCC(=O)Nc1ccc(S(=O)(=O)N2CCCC2)cc1,-22.5%
16,O=C1CN(C(=S)NC(=O)c2ccccc2[N+](=O)[O-])CCN1,16.9%
17,C#Cc1ccc([C@@H]2C=C(C(=O)N3CCOCC3)O[C@H](OCCCCO)C2)cc1,17.3%
18,O=c1cc(-c2ccc(O)cc2)oc2c([C@@H]3O[C@H](CO)[C@@H](O)[C@H](O)[C@H]3O)c(O)c([C@@H]3O[C@H](CO)[C@@H](O)[C@H](O)[C@H]3O)c(O)c12,11.8%
19,Cc1oc2c(C)c3oc(=O)c(CCC(=O)N[C@@H](CC(C)C)C(=O)O)c(C)c3cc2c1C,13.4%
20,Cc1cc(C(=O)NC2CCCC2)c2ccccc2n1,9.7%
21,FC(F)(F)c1cccc(Nc2nc(N3CCOCC3)nc(N3CCOCC3)n2)c1,15.6%

row,SMILES,"hERG current change (%, negative = inhibition) at 10uM"
1,CCOc1ccc(OCC)c(NC(=O)C2CCN(S(=O)(=O)c3c(C)noc3C)CC2)c1,-3.97%
2,Cc1cccc(N2CCN(CC(=O)N(C3CCCC3)C3CCS(=O)(=O)C3)CC2)c1C (centres unmarked),-13.3%
3,O=C(OCC(=O)N1CCN(S(=O)(=O)c2ccc(Cl)cc2)CC1)C1CCC1,11.8%
4,Cc1oc(S(=O)(=O)N2CCCC2)cc1C(=O)Nc1ccccc1,7.38%
5,C[N+]1(C)CCN(c2ccccc2)CC1.[I-],14.2%
6,CCCn1nnc(NC(=O)Cc2ccccc2)n1,7.77%
7,Cc1cccc(N(C(=O)CCC(=O)Nc2cc(C)on2)C(C(=O)NC2CCCC2)c2ccncc2)c1 (centres unmarked),18.7%
8,COc1cccc(C(=O)NC2CC3CCC(C2)N3Cc2ccccc2)c1 (centres unmarked),-28.7%
9,COc1cccc(NC(=O)CC2S/C(=N\S(=O)(=O)c3ccccc3)N(c3ccccc3)C2=O)c1 (centres unmarked),-4.09%
10,Cc1nc2ccccc2c(=O)n1NC(=O)c1cccc([N+](=O)[O-])c1,6.56%
11,COc1ccc(C2C(C#N)=C(N)N3C(=C2C#N)Sc2ccccc23)cc1 (centres unmarked),8.81%
12,CCOC(=O)C1=C(N)Oc2cc(O)ccc2C1c1cccc(Cl)c1 (centres unmarked),-2.49%
13,COc1ccc(-c2noc(-c3ccoc3C)n2)cc1OC,17.9%
14,Cc1ccc(NC(=O)CCN2CCN(CCO)CC2)cc1Br.Cl,-15.7%
15,CC(=O)N1CCOc2ccc(S(=O)(=O)N3CCC(C)CC3)cc21,6.53%
16,CC1CC(C)CN(S(=O)(=O)c2ccc(NC(=O)CCN3C(=O)C4CC=CCC4C3=O)cc2)C1 (centres unmarked),4.22%
17,CC1=CC(C)(C)N(C(=O)CSc2nnc(C)s2)c2ccc(C)cc21,-6.67%
18,CCOc1ccccc1CN1CCC(n2nccc2NC(=O)CCCc2ccccc2)CC1,-83.7%
19,CCN(CC)C(=O)CSc1nnc(-c2ccccc2)n1N,21.4%
20,COc1ccccc1Nc1nc(N)nc(CSC(=S)N2CCC(C)CC2)n1,-13.7%
21,CC(=O)Oc1ccc2cc(-c3nc4ccccc4n3C)c(=O)oc2c1,0.963%

row,SMILES,"hERG current change (%, negative = inhibition) at 10uM"
1,Cn1c(=O)c2c(nc(CN3CCc4ccccc4C3)n2Cc2ccc(Cl)cc2)n(C)c1=O,0.125%
2,COc1ccccc1NC(=O)CCCCC(=O)Nc1ccccc1OC,7.88%
3,O=c1[nH]c2ccccc2cc1CN(Cc1ccco1)S(=O)(=O)c1ccc(F)cc1,18%
4,COC(=O)C1=C(c2ccc(S(C)(=O)=O)cc2)C[C@@H]2CC[C@H]1N2C(=O)NC(C)C,-49.8%
5,O=C(Nc1cc(Cl)ccc1N1CCOCC1)c1ccc(N2CCCCC2)c([N+](=O)[O-])c1,-6.63%
6,NC(=O)NC(CC(=O)NNC(=O)c1ccccn1)c1ccc(Cl)cc1 (centres unmarked),11.7%
7,O=C(NN1C(=O)C2C3CCC(O3)C2C1=O)c1ccc(Cl)cc1 (centres unmarked),6.47%
8,c1ccc(-c2nc(NC3CCCC3)c3ccccc3n2)cc1,20.5%
9,COc1ccc(C(=O)C(C)OC(=O)CCN2C(=O)C3CC=CCC3C2=O)cc1 (centres unmarked),-6.72%
10,CC1CCN(C(=O)CCC(=O)Nc2nnc(C(F)(F)F)s2)CC1,30%
11,O=C(N/C(=C/c1cccc([N+](=O)[O-])c1)C(=O)N1CCOCC1)c1ccccc1Br,-7.05%
12,COc1ccc(/C=N/n2c(SC)nnc(C(C)(C)C)c2=O)c(OC)c1,6.24%
13,N=c1c(C(=O)NCc2ccccc2)cc2c(=O)n3ccccc3nc2n1CCCN1CCOCC1,-78.6%
14,COc1ccc(NC(=O)C2CCN(Cc3cnn(-c4ccccc4)c3-n3cccc3)CC2)cc1OC,-14%
15,Cc1oc(-c2ccccc2)nc1Cn1cccc1C1=NC(c2ccccc2)CO1 (centres unmarked),5.29%
16,COc1ccc(CCN=C(N)NS(=O)(=O)c2ccccc2)cc1,9.06%
17,C#CCOCCOCCOCCNc1nc(N2CCN(C(=O)[C@H]([C@@H](C)CC)n3cc(CCC[NH+]=C(N)N)nn3)CC2)nc(N2CCN(C(=O)[C@H](CCCC[NH3+])n3cc(CC(C)O)nn3)CC2)n1.[Cl-] (some centres unmarked),14.1%
18,CCn1cc(C(=O)O)c(=O)c2cnc(N3CCN(C(=S)NC(=O)c4ccccc4Cl)CC3)nc21,20.7%
19,CC1C(c2cccs2)=[N+]([O-])C(C)(C(=O)c2ccc(Cl)cc2)N1O (centres unmarked),7.52%
20,O=C(CSc1nnc(CNC(=O)c2ccccc2)o1)Nc1ccc2c(c1)OCCO2,11.9%
